# In all, about 420,000 compounds went through this assay and about 50,000 (12%) were called active. The inconclusive results got no clear call from the source; some entries with a clear call stand among them for comparison. Calls follow the shape of the dose curve; as a rule, active = well fitted inhibition curve with a large enough effect; inconclusive = small, poorly fitted or top-dose-only effect; inactive = flat fitted curve, though single readings scatter. Potencies of inconclusive entries are left out as doubtful fits.
# Assay: qHTS for Inhibitors of human tyrosyl-DNA phosphodiesterase 1 (TDP1): qHTS in cells in presence of CPT; also: nearly all actives have a fitted effect of over 55% in size
# Details: chicken DT40 Tdp1-/-;hTDP1 cells + 20 nM CPT, ATP luminescence, 48 h; activity change, negative = growth inhibition: at 46.2 µM (top of the series)
# Outline: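 Cell growth measured by CellTiter-Glo luminescence after a minimum 48 h, 37 C compound exposure with 20 nM CPT in Tdp1-knockout DT40 cells stably expressing hTDP1, seeded 400/well; qHTS titration format.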
# % is scaled to controls: 0 for no effect and ±100 for the full control effect; potency is read from the fitted curve at half-maximal effect; tags tell the direction and shape of the fitted curve.
SMILES,Potency,"activity change, negative = growth inhibition"
COC(=O)c1c(NC(=O)C2CC2)sc(C(=O)Nc2ccccc2)c1C,"inconclusive [inhibitor, single point]",–
O=C(CSc1nc2c(c(=O)[nH]1)CN(Cc1ccc(F)cc1)CC2)Nc1ccc(F)cc1,active: 20.6 µM,–
O=C(NCc1cccc(F)c1)c1ccc(CS(=O)c2ccccc2Cl)o1 (stereo not given),active: 16.4 µM,–
Cc1ccc(-c2cc(C(F)(F)F)n3ncc(C(=O)N4CCCc5ccccc54)c3n2)cc1,–,inactive: -27.7%
Cc1ccc(-n2[nH]c(C)c(C=Nc3ccc4[nH]c(=O)[nH]c4c3)c2=O)cc1,active: 16.4 µM,–
C/C(O)=C(\C#N)c1nnc2n1CCCCC2,–,inactive: 20.5%
O=C(COC(=O)c1ccc2c(c1[N+](=O)[O-])C(=O)c1ccccc1C2=O)NC1CC1,active: 3.66 µM,–
COc1ccc(CC2(CO)CCN(S(=O)(=O)c3c(C)nn(C)c3C)CC2)cc1,"inconclusive [inhibitor, single point]",–
Cc1ccc(C(=O)Nc2ccc(-n3c(C)nc4ccccc4c3=O)cc2)cc1[N+](=O)[O-],active: 9.2 µM,–
CCCCn1c(=S)[nH]c2cc(S(=O)(=O)N3CCCCC3)ccc21,"inconclusive [inhibitor, single point]",–
O=C(CN1CCC(NC(=O)Nc2ccc(F)cc2)CC1)Nc1ccccc1[N+](=O)[O-],"inconclusive [inhibitor, single point]",–
COc1ccccc1N(C)S(=O)(=O)c1ccc(C(=O)N(CC(N)=O)C(C)C)cc1,–,inactive: 13.6%
COc1ccccc1N1CSC2=C(C#N)C(c3ccc(SC)cc3)CC(=O)N2C1 (stereo not given),"inconclusive [inhibitor, single point]",–
CC(=O)Nc1nc2nc(-c3ccccc3)cc(-c3ccccc3)n2n1,"inconclusive [inhibitor, partial curve, poor fit]",–
COc1ccc(CCNC(=O)Cc2c(C)c3cc(OC)c(OC)cc3oc2=O)cc1,–,inactive: -6.41%
Fc1ccc2c(c1)c1n[nH]c(=S)nc1n2CCc1ccccc1,"inconclusive [inhibitor, partial curve, poor fit]",–
Cc1cccc(C)c1OCC(=O)Nc1nonc1-c1ccc(Br)cc1,"inconclusive [inhibitor, single point]",–
COc1ccc(Oc2c(C=O)c3ccccc3n2C)cc1,"inconclusive [inhibitor, single point]",–
CCOn1c(=O)c(C)[n+]([O-])c2ccccc21,"inconclusive [inhibitor, single point]",–
CC(OC(=O)CCCN=C1NS(=O)(=O)c2ccccc21)C(=O)Nc1ccc(F)cc1Cl (stereo not given),–,inactive: -4.31%

# — PubChem BioAssay AID686979 (National Center for Advancing Translational Sciences (NCATS), 2013)
